# Publication PMC4336329 (PLoS ONE, 2015)
# The campaign covered roughly 310,000 compounds. About 14,000 (4.5%) showed an effect of 50% or more. The effect is printed as a negative number. Some of the results follow.
# Biological target: human ether-à-go-go-related gene (hERG) potassium channel (human, UniProt Q12809)
# Assay: primary screen, population patch clamp on CHO cells stably expressing hERG
# 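Note: peak tail current of the secondary pulse compared with the same well before compound.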
# Sequence of human ether-à-go-go-related gene (hERG) potassium channel (Q12809 whole entry, looked up): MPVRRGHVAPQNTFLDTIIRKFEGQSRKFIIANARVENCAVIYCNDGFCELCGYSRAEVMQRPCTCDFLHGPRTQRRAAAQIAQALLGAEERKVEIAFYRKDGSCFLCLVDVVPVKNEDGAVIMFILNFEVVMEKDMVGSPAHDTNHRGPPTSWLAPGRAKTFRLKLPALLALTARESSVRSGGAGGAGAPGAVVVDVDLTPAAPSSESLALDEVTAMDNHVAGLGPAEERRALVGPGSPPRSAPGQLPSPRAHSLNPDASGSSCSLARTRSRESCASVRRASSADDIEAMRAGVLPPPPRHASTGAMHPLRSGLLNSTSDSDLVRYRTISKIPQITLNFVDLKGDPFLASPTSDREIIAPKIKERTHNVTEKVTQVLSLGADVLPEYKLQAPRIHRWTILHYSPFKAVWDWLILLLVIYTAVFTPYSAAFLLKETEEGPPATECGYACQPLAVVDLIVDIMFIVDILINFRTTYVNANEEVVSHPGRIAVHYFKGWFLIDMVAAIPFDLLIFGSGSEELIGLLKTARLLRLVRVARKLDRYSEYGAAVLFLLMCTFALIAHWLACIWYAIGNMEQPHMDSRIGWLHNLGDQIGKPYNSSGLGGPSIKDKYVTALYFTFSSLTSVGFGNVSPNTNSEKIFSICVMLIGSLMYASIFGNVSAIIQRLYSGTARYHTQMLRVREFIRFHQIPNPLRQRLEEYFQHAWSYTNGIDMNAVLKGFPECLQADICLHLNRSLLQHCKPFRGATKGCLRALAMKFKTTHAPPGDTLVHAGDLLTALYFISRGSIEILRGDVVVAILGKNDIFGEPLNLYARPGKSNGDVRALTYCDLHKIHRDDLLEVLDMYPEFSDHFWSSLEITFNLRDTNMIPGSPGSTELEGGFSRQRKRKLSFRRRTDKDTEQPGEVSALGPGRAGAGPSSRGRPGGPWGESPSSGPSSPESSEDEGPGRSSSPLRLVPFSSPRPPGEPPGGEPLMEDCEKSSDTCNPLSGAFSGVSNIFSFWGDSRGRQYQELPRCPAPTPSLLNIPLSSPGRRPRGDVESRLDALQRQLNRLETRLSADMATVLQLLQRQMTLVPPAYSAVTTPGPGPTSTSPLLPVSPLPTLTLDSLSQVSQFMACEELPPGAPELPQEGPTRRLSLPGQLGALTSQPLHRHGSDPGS
row,SMILES,"hERG current change (%, negative = inhibition) at 10uM [%]"
1,Cc1ccc(S(=O)(=O)N(Cc2c(F)cccc2Cl)C(=O)N2CCN(C)CC2)cc1,-1.1
2,Cc1ccccc1NC(=O)c1cc2c(C)nc3ccccc3c2o1,5.86
3,O=C(NCC(c1ccco1)N1CCN(c2ccccc2F)CC1)c1ccco1 (stereo not drawn),-2.63
4,COc1ccccc1C(=O)NCCC(=O)N1CC(=O)Nc2ccccc21,14.3
5,Fc1ccc(NC(=S)Nc2cc(-c3ccccc3)[nH]n2)cc1Cl,5.06
6,CCN(CC)c1ccc(C=NCCNS(=O)(=O)c2ccc(C)cc2)cc1,24.6
7,COc1ccc(/C=C2/C(=O)ON=C2C)cc1Br,20.1
8,Cc1ccc(S(=O)(=O)NNC(=O)c2cnn(-c3ccccc3)c2-n2cccc2)cc1,-15
9,COC(=O)C1Sc2[nH]c(=O)sc2C2c3ccccc3OC(=O)C12 (stereo not drawn),-22.6
10,CC(=O)Nc1ccc(NC(=O)c2cc(S(=O)(=O)N3CCCCC3)ccc2C)cc1,5.45
11,Cc1cc(OCC(=O)Nc2c(C)n(C)n(-c3ccccc3)c2=O)ccc1[N+](=O)[O-],-23.5
12,Cc1nc2ccc(C(=O)NCc3ccc4c(c3)OCO4)cc2s1,16.8
13,CCOC(=O)C(=O)N1CCN(c2cc3c(cc2[N+](=O)[O-])n(C)c(=O)n3C)CC1,-24.2
14,COc1ccccc1N1CCN(/N=C/c2cccc(Cl)c2)CC1,15.6
15,CNC(=O)CCn1nc(-c2ccc(Cl)cc2)c2ccccc2c1=O,-15.7
16,Cc1ccc([N+](=O)[O-])cc1NC(=O)CCc1ccccc1,3.43
17,CC(C)[C@H](N)c1cn([C@@H](CO)C(=O)N2CCNCC2)nn1,10.8
18,CCOC(=O)COc1ccc(Cl)cc1C1NC(=O)NC(C)=C1C(C)=O (stereo not drawn),10.1
19,COC(=O)C1=C(C)NC2=C(C(=O)CC(C)(C)C2)C1c1ccccn1 (stereo not drawn),-1.57
20,CN1CCN(C(=O)CCN2C(=O)/C(=C\c3ccccc3F)SC2=S)CC1,5.03
21,c1ccc(-n2c(SCc3ccncc3)nnc2-c2ccco2)cc1,-25
22,COc1ccc(S(=O)(=O)NNC(=O)c2cc3cc4ccccc4nc3s2)cc1,5.94
23,CCN(CC)C(=O)NC1CC(=O)N(c2ccc(OC)cc2)C1 (stereo not drawn),16.3
24,COc1cccc(NC(=O)Cc2ccc(C)cc2)c1,-1.94
